89 compounds from publication PMC4336329 (PLoS ONE, 2015) can be followed below.

Among all 310,000 compounds or so, about 2,200 (0.71%) showed an effect of 50% or more. The effect is printed as a negative number. This is one part of the list.

The experiment deals with human ether-à-go-go-related gene (hERG) potassium channel (human, UniProt Q12809). Put plainly: primary screen, population patch clamp on CHO cells stably expressing hERG.
Sequence of human ether-à-go-go-related gene (hERG) potassium channel (Q12809 whole entry, looked up): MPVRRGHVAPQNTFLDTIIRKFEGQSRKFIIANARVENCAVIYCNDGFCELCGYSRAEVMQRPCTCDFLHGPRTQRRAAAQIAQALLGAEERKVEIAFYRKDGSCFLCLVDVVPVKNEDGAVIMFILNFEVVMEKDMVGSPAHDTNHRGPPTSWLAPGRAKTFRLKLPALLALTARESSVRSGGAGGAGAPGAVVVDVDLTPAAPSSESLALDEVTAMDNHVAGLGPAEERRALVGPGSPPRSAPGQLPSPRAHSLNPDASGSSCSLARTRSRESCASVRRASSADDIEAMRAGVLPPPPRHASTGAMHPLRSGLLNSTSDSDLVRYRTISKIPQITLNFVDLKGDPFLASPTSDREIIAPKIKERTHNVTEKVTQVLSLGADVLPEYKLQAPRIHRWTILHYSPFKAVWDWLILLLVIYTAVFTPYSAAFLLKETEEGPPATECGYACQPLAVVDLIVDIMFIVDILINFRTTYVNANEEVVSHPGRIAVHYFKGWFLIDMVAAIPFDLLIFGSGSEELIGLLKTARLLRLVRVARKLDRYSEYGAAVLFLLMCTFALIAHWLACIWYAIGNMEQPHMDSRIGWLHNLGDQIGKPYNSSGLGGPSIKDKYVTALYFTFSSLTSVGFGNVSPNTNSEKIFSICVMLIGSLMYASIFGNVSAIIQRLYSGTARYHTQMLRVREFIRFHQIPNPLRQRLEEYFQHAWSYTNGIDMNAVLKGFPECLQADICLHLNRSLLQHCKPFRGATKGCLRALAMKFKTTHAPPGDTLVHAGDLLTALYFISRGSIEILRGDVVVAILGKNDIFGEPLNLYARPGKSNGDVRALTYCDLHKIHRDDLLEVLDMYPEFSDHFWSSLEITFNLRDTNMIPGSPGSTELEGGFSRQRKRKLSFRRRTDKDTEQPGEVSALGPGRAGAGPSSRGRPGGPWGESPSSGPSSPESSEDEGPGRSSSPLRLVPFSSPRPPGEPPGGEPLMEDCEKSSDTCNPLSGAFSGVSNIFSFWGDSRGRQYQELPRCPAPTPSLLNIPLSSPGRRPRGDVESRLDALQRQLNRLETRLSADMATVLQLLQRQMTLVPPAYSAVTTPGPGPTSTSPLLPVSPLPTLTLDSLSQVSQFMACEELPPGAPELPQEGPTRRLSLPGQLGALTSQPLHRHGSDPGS
As for `Cc1ccc2c(c1)N=C(c1ccccc1)CC(C(Cl)Cl)=N2`, the “hERG current change (%, negative = inhibition) at 1uM” value turned out to be 17%. On to `CCN1C/C(=C/c2sccc2C)c2nc3ccccc3c(C(=O)O)c2C1.Cl`, for which the “hERG current change (%, negative = inhibition) at 1uM” value worked out at 9.21%. Then `N/C(=N\OC(=O)c1ccc(F)cc1)c1ccccc1`, with 3.31%; and `CCn1c(SCC(=O)Nc2ccc(C(C)=O)cc2)nc2c([nH]c3ccccc32)c1=O`, with 15.3%.

As for `CCCCNC(=O)c1ccc2c(c1)ncn2C1CCCCC1`, the “hERG current change (%, negative = inhibition) at 1uM” value is on record as -2.2%. Then `O=C(c1ccc(CSCc2ccccc2F)o1)N1CCN(c2ccc(N3CCOCC3)nn2)CC1`, with -25%; and `F[B-](F)(F)F.OCCCCC[NH+]=c1cc(-c2ccccc2)oc2ccc(Cl)cc12`, with -86.1%.

For the compound `CCn1c(=O)c(C(=O)NCCNCCO)c(O)c2ccccc21.Cl`, the “hERG current change (%, negative = inhibition) at 1uM” value is 8.64%. Then `Cc1ccc(Nc2ccc(S(=O)(=O)N3CCOCC3)cc2[N+](=O)[O-])c(C)c1`, with 0.103%. The same measure for `C=CCn1c(SCn2nnc3ccccc3c2=O)nnc1-c1ccc(F)cc1`: -7.02%; for `Cc1cccc(C(=O)OC(C)C(=O)Nc2ccc(S(=O)(=O)Nc3ncccn3)cc2)c1C` (centres unmarked): 5.04%. For `COc1ccccc1NC(=O)CC1COc2ccccc2O1` (centres unmarked), the “hERG current change (%, negative = inhibition) at 1uM” value worked out at 12.3%. As for `Cc1ccc(NC(=O)COC(=O)c2c(C)nn(-c3ccccc3)c2C)cc1`, the “hERG current change (%, negative = inhibition) at 1uM” value is reported as 14.4%. Then `COc1ccc(NC(=O)C(C)N(c2ccc(C)cc2)S(C)(=O)=O)c(OC)c1` (centres unmarked), with -9.45%; and `Nc1nnc(SCC(=O)Nc2cccnc2Cl)s1`, with 22.3%. As to `C=CCNC(=S)N/N=C/c1ccc(-c2ccc(Cl)cc2Cl)o1`, the “hERG current change (%, negative = inhibition) at 1uM” value is 4.99%. The same measure for `Cn1c(=O)[nH]c(=O)c2c1nc(SCc1ccccc1Cl)n2CC(N)=O`: 14.3%. Then `Cc1ccc(N(C(=O)c2cc3ccccc3oc2=O)C2C=CS(=O)(=O)C2)cc1` (centres unmarked), with 11.9%; and `CC(C)c1ccc(S(=O)(=O)N2CCN(C(=O)CN3C(=O)NC4(CCCCC4)C3=O)CC2)cc1`, with 8.14%. The same measure for `Cn1c(=NC(=O)C2CCCCC2)sc2cc([N+](=O)[O-])ccc21`: 17.1%; for `Cc1cccc(N(C)c2ncnc3onc(-c4ccc(F)cc4)c23)c1C`: 14.1%; for `CCc1ccccc1NC(=O)CN(C)Cc1c(O)ccc2ccccc12`: 10.3%. On to `CCOC(=O)c1c2ccccc2[n+]([O-])n1[C@@H](C)C(N)=O`, for which the “hERG current change (%, negative = inhibition) at 1uM” value worked out at 11.1%. Then `O=C(Oc1ccccc1)N(c1ccccc1)c1ccccc1`, with 8.1%. The same measure for `CCCCn1c(N)c(N(CC(C)C)C(=O)Cn2c(=O)cnc3ccccc32)c(=O)[nH]c1=O`: 16.5%; for `COc1ccc2[nH]cc(C3=CCNCC3)c2c1.O=C(O)CCC(=O)O`: 6.52%. Turning to `CCOC(=O)Nc1ccc2c(c1)Sc1ccccc1N2C(=O)CCN1CCOCC1`, the “hERG current change (%, negative = inhibition) at 1uM” value came out at 3.45%. For the compound `CN1CCN(c2ccc(CNS(=O)(=O)Cc3cccc(C(F)(F)F)c3)cc2)CC1`, the “hERG current change (%, negative = inhibition) at 1uM” value amounted to 7.74%. `CC(=O)c1ccc(NC(=S)NC(=O)/C=C/c2ccccc2)cc1`: the “hERG current change (%, negative = inhibition) at 1uM” value is 15.9%. With `COc1ccc(CC(=O)Nc2cccc3ncccc23)cc1OC`, the “hERG current change (%, negative = inhibition) at 1uM” value stood at 10.3%. The same measure for `COc1cccc(Nc2nc(-c3cccnc3)cs2)c1`: 11.1%; for `O=C(COc1ccc(Cl)cc1)NCc1nnc(SCC(=O)N2CCCCCC2)o1`: -5.31%; for `Cc1ccc(N2C(N)=C(C#N)C(c3cccnc3)C3=C2CCCC3=O)cc1` (centres unmarked): 7.89%. As for `O=C(COC(=O)CNC(=O)c1ccccc1)Nc1ccc2c(c1)OCO2`, the “hERG current change (%, negative = inhibition) at 1uM” value was 0.501%.

Consider `COc1ccccc1N1CCN(/N=C/c2ccc(O)cc2O)CC1`, for which the “hERG current change (%, negative = inhibition) at 1uM” value amounted to 12.4%.

As for `CN1CCN(S(=O)C23CC4CC(CC(C4)C2)C3)CC1` (centres unmarked), the “hERG current change (%, negative = inhibition) at 1uM” value is reported as -10.8%. Take `Cc1ccc(NC(=O)CC2(CC(=O)O)CCCC2)cc1`: the “hERG current change (%, negative = inhibition) at 1uM” value is reported as 19.7%. On to `Cc1cccc2cc(C#N)c(N3CCOCC3)nc12`, for which the “hERG current change (%, negative = inhibition) at 1uM” value was 18.8%. Then `CC1=CC2=NC(=O)CC(C)(C(=O)N(CC(=O)NC(C)C)C3CCCC3)N2C=C1` (centres unmarked), with 14.8%. The same measure for `COc1ccccc1NC(=O)Nc1ccc(Cc2ccncc2)cc1`: 8.71%; for `CC(=O)c1ccc(OCC(O)CNCc2ccc3c(c2)OCO3)cc1` (centres unmarked): -5.83%. For `O=C(Nc1ccc2c(c1)OCCO2)C1CCCN(S(=O)(=O)c2cnc[nH]2)C1` (centres unmarked), the “hERG current change (%, negative = inhibition) at 1uM” value is given as 15.8%. Then `COc1cccc(C2=NOC(C(=O)NCC3CCCO3)C2)c1` (centres unmarked), with 12.8%; and `CC(=O)c1c(C)oc2ccc(NS(=O)(=O)c3ccccc3)cc12`, with 14.3%; and `CCNC(=S)NNC(=O)c1csc2ccccc12`, with 0.0518%. Regarding `COc1cccc(C(=O)NCC2CCCN2S(=O)(=O)c2cccs2)c1` (centres unmarked), the “hERG current change (%, negative = inhibition) at 1uM” value stood at 15.2%. In the case of `Cc1ccc(CNC(=O)CCS(=O)(=O)c2cc3c(cc2Cl)NC(=O)CO3)cc1`, the “hERG current change (%, negative = inhibition) at 1uM” value is recorded as 0.814%.

For `O=c1c2ccccc2nc(-c2ccccc2)n1-c1ccc(O)cc1`, the “hERG current change (%, negative = inhibition) at 1uM” value turned out to be 16.2%. The same measure for `CCN(CC)CCn1c(NC(=O)c2ccc(C)cc2)nc2ccccc21`: -28%; for `CSC1=N/C(=C\c2cccnc2)C(=O)N1c1ccccc1`: 5.13%. Then `CCCc1nc2ccccc2c(C(=O)OCC(=O)N2CCc3ccccc32)c1CC`, with 5.31%. With `COc1cc2ccccc2cc1C(=O)Nc1ccccc1N1CCCC1`, the “hERG current change (%, negative = inhibition) at 1uM” value was 0.53%. As for `CCOC(=O)C1CCN(C(=O)c2ccc(OC)cc2OC)CC1`, the “hERG current change (%, negative = inhibition) at 1uM” value is -7.46%.

`CN(C)c1cc(-c2ccccc2)nc(N)n1`: the “hERG current change (%, negative = inhibition) at 1uM” value is 6.99%. The same measure for `Cc1cccc(OCCSc2nnc(-c3ccoc3C)n2C)c1`: -12.2%; for `O=C1C=C(c2ccc(Oc3ccccc3)cc2)C[C@@H](c2ccc(Cl)cc2)C1`: 15.5%; for `Cn1ncc2c(Nc3cccc4ccccc34)ncnc21`: 1.62%. Turning to `COc1ccc(N2CCN(CC(=O)Nc3ncc(C)s3)CC2)cc1`, the “hERG current change (%, negative = inhibition) at 1uM” value amounted to 11.5%. Regarding `CC/C(=N\NC(=O)c1nnn(-c2nonc2N)c1-c1cccs1)c1ccccc1`, the “hERG current change (%, negative = inhibition) at 1uM” value is 19%. Then `Cc1ccc(SC(C)C(=O)Nc2cccc(N(C)S(C)(=O)=O)c2)cc1` (centres unmarked), with 1.57%.

Turning to `COc1ccc(C2(CNC(=O)c3cccc([N+](=O)[O-])c3)CCOCC2)cc1`, the “hERG current change (%, negative = inhibition) at 1uM” value stood at 11.5%. The same measure for `Cc1cc(C)c(S(=O)(=O)N2CCCC(C(=O)NC3CCCC3)C2)c(C)c1` (centres unmarked): 3.01%; for `COCCn1c(CNc2ccc(F)cc2)nnc1SCC(=O)Nc1ccc(OC)cc1OC`: -6.27%; for `Cc1ccc2nc(SCC(=O)Nc3cccc(S(=O)(=O)NC4=NCCCCC4)c3)[nH]c2c1`: 12.1%. Then `Cc1noc(C)c1COc1cccc(C(=O)NC(C)(C)C)c1`, with 14.6%; and `CCOc1nc(C)cc(C)c1S(=O)(=O)c1ccc(Cl)cc1`, with 9.36%; and `O=C(Oc1ccccc1)c1cccnc1Oc1ccccc1`, with 8.41%. Then `CCCOCC(O)CC(Cc1ccccc1)C(=O)NN` (centres unmarked), with 7.96%. Take `COc1ccc(C(=O)COC(=O)c2nc3nccc(C)n3n2)cc1F`: the “hERG current change (%, negative = inhibition) at 1uM” value came out at 2.15%. The same measure for `Cc1ccc(P(=O)(O)c2ccc(C)cc2)cc1`: 8.61%. Then `O=[N+]([O-])c1ccc2oc(-c3ccccc3)nc2c1`, with 14.5%; and `Cc1ccc(NC(=O)CNc2ccc(Cl)c(Cl)c2)cc1S(=O)(=O)N(C)C`, with -5.87%. Then `CCc1noc(C)c1C(=O)N1CCN(S(=O)(=O)c2ccc(C(C)=O)cc2)CC1`, with -0.838%; and `CC1CCCN(c2c([N+](=O)[O-])c(=O)oc3ccccc23)C1` (centres unmarked), with -5.54%. In the case of `CC1=C(CC(=O)NCC(=O)NCC(=O)O)c2cc(F)ccc2/C1=C/c1ccc(S(C)=O)cc1` (centres unmarked), the “hERG current change (%, negative = inhibition) at 1uM” value came to 13.1%. The same measure for `COc1ccc(C2C3=C(CC(C)(C)CC3=O)OC(N)=C2[N+](=O)[O-])cc1` (centres unmarked): 5.43%; for `CCN(CC)c1ccc(/C=N/n2c(-c3ccccc3Br)n[nH]c2=S)cc1`: 5.42%. For the compound `Cc1ccc(C)c(NC(=O)CCCCCCCCCCC2COCCO2)c1` (centres unmarked), the “hERG current change (%, negative = inhibition) at 1uM” value is reported as 6.1%.

Take `COc1cc(CNc2nnnn2C)ccc1OCc1c(F)cccc1Cl`: the “hERG current change (%, negative = inhibition) at 1uM” value was determined as 6.07%. Then `O=C(CS(=O)(=O)c1cn(Cc2ccc(F)cc2)c2ccccc12)N1CCOCC1`, with 8.87%; and `Cc1cnc(NC(=O)CSc2nnc(-c3cccs3)n2C)s1`, with -13.2%. Then `CCOC(=O)C(CC)(CC)/C(C)=N/NC(=O)CC#N`, with 5.29%; and `O=S(=O)(NCc1c(Cl)cccc1Oc1ccccc1)c1ccc(F)cc1`, with 4.99%. Then `COC(=O)CCCC1=CC2=CC(=O)C(C)(OC(=O)c3cccs3)C(=O)C2=CN1c1cccc(C#N)c1` (centres unmarked), with 10.6%; and `Cc1cccc(CN2CCSc3sccc3C2=O)c1`, with 13.4%; and `S=c1[nH]nc(Cc2cccs2)n1-c1ccccc1`, with 9.84%. As to `CCCCCCn1c(Br)nc2c1c(=O)n(C)c(=O)n2C`, the “hERG current change (%, negative = inhibition) at 1uM” value is recorded as 3.86%. The same measure for `CNC(=S)NNC(=O)c1ccc(C(C)(C)C)cc1`: 9.52%. Take `COc1ccc(NC(=O)c2cn(-c3ccccc3)nc2-c2ccncc2)cc1`: the “hERG current change (%, negative = inhibition) at 1uM” value is -0.625%.
